# Laboratory results from a collection of fitness landscapes (doi:10.1126/science.1257360).
# This is one part of the list.
# B1: PhoQ; a variant is named by its letters at X, in order, P23837 (parent)
# chain: MKKLLRLFFPLSLRVRFLLATAAVVLVLSLAYGMVALIGYSVSFDKTTFRLLRGESNLFYTLAKWENNKLHVELPENIDKQSPTMTLIYDENGQLLWAQRDVPWLMKMIQPDWLKSNGFHEIEADVNDTSLLLSGDHSIQQQLQEVREDDDDAEMTHSVAVNVYPATSRMPKLTIVVVDTIPVELKSSYMVWSWFIYVLSANLLLVIPLLWVAAWWSLRPIEALAKEVRELEEHNRELLNPATTRELTSLVRNLNRLLKSERERYDKYRTTLTDLTHSLKTPLXXLQXXLRSLRSEKMSVSDAEPVMLEQISRISQQIGYYLHRASMRGGTLLSRELHPVAPLLDNLTSALNKVYQRKGVNISLDISPEISFVGEQNDFVEVMGNVLDNACKYCLEFVEISARQTDEHLYIVVEDDGPGIPLSKREVIFDRGQRVDTLRPGQGVGLAVAREITEQYEGKIVAGESMLGGARMEVIFGRQHSAPKDE
# Variants of: B1
# Assay: enrichment ratio after two sorts for PhoP signalling (ratio (wild type AVST 3.29)); higher = more functional
# Conditions: with PhoP (E. coli)
row,Variant,enrichment ratio
1,EFLG,≤ 0.25
2,ACGP,0.562
3,DRCE,≤ 0.25
4,CIFT,≤ 0.25
5,PNLC,1.41
6,SCKP,≤ 0.25
7,MKWP,≤ 0.25
8,TANE,18.3
9,QRYL,≤ 0.25
10,IEWW,≤ 0.25
11,VPHD,≤ 0.25
12,YGSE,≤ 0.25
13,FMFP,≤ 0.25
14,PYRR,≤ 0.25
15,YCMT,0.253
16,QDYK,≤ 0.25
17,NQEV,≤ 0.25
18,KLNN,≤ 0.25
19,FDTI,≤ 0.25
20,DNNI,≤ 0.25
21,SSAN,12.6
22,LHDI,≤ 0.25
23,GRTN,≤ 0.25
24,KMIH,≤ 0.25
25,WRFC,≤ 0.25

row,Variant,enrichment ratio
1,YKMH,≤ 0.25
2,HQQL,≤ 0.25
3,WKGM,≤ 0.25
4,LARV,≤ 0.25
5,PVEV,≤ 0.25
6,LAPV,≤ 0.25
7,LGYR,≤ 0.25
8,LKES,≤ 0.25
9,HWRP,≤ 0.25
10,LVTT,≤ 0.25
11,RNLT,≤ 0.25
12,HWPS,≤ 0.25
13,TRSD,≤ 0.25
14,MCAC,6.31
15,TEPL,≤ 0.25
16,RDVS,≤ 0.25
17,GCAR,≤ 0.25
18,FDRM,≤ 0.25
19,WDTL,≤ 0.25
20,RDNH,≤ 0.25
21,SDGS,≤ 0.25
22,RITY,≤ 0.25
23,NQNY,≤ 0.25
24,MPAY,≤ 0.25
25,NMVS,≤ 0.25

row,Variant,enrichment ratio
1,LRLI,≤ 0.25
2,WYHR,≤ 0.25
3,YQCA,≤ 0.25
4,TQKL,≤ 0.25
5,QIHV,≤ 0.25
6,QQDI,4.8
7,IRPH,≤ 0.25
8,LGGK,≤ 0.25
9,YWNL,≤ 0.25
10,YEMI,6.9
11,GFSD,≤ 0.25
12,SCST,10.5
13,HTNL,≤ 0.25
14,EVES,≤ 0.25
15,NDGE,≤ 0.25
16,WKNT,≤ 0.25
17,HLLY,≤ 0.25
18,PIGW,≤ 0.25
19,HGLY,3.92
20,YWQQ,≤ 0.25
21,GCVI,≤ 0.25
22,TDLF,0.961
23,WASQ,≤ 0.25
24,AQLQ,5.87
25,EITF,≤ 0.25

row,Variant,enrichment ratio
1,AEAR,≤ 0.25
2,GCVT,≤ 0.25
3,RSCR,≤ 0.25
4,LYAT,0.257
5,IICQ,≤ 0.25
6,EKAH,≤ 0.25
7,GQLM,5.26
8,QGSE,7.43
9,FEHH,≤ 0.25
10,RQQY,≤ 0.25
11,TQSY,12.3
12,NYPQ,≤ 0.25
13,DKSV,≤ 0.25
14,IGAN,≤ 0.25
15,NSIC,≤ 0.25
16,QTTS,≤ 0.25
17,HAGL,≤ 0.25
18,LDVT,≤ 0.25
19,QLQP,≤ 0.25
20,FMPF,≤ 0.25
21,HQDV,≤ 0.25
22,SCII,5.01
23,SFLV,1.19
24,KYCL,≤ 0.25
25,FIYC,≤ 0.25

row,Variant,enrichment ratio
1,VKPC,≤ 0.25
2,EFDS,≤ 0.25
3,DSYY,≤ 0.25
4,EHRF,≤ 0.25
5,NTPI,≤ 0.25
6,ICDR,≤ 0.25
7,VPVH,≤ 0.25
8,ASVW,≤ 0.25
9,LLQE,≤ 0.25
10,VFGV,≤ 0.25
11,MIIS,1.61
12,YTQK,≤ 0.25
13,VASH,≤ 0.25
14,FYTF,≤ 0.25
15,ERHA,≤ 0.25
16,WIWA,≤ 0.25
17,QHRV,≤ 0.25
18,HIMG,≤ 0.25
19,VVWL,≤ 0.25
20,REIA,≤ 0.25
21,VGTY,≤ 0.25
22,ASFH,≤ 0.25
23,MKWG,≤ 0.25
24,TIGN,3.22
25,RCRN,≤ 0.25

row,Variant,enrichment ratio
1,VLWY,≤ 0.25
2,GPTA,≤ 0.25
3,DAMS,≤ 0.25
4,KGYW,≤ 0.25
5,MKLG,≤ 0.25
6,IDKR,≤ 0.25
7,MFMT,≤ 0.25
8,GSQQ,≤ 0.25
9,ICFM,≤ 0.25
10,NPRS,≤ 0.25
11,PAQP,≤ 0.25
12,NMLN,≤ 0.25
13,IVQH,≤ 0.25
14,WGPA,≤ 0.25
15,FASV,≤ 0.25
16,YGAR,≤ 0.25
17,PKTC,≤ 0.25
18,PDPV,≤ 0.25
19,RPQE,≤ 0.25
20,QHDM,19.5
21,TYGH,≤ 0.25
22,WFGR,≤ 0.25
23,EAHG,≤ 0.25
24,YWLP,≤ 0.25
25,WLYY,≤ 0.25

row,Variant,enrichment ratio
1,ITQW,≤ 0.25
2,GHEL,≤ 0.25
3,YFCW,≤ 0.25
4,FKWC,≤ 0.25
5,RWPA,≤ 0.25
6,ICVI,≤ 0.25
7,QIII,≤ 0.25
8,GKRN,≤ 0.25
9,KNVN,≤ 0.25
10,EEPC,≤ 0.25
11,VKMG,≤ 0.25
12,SYRE,≤ 0.25
13,VTFP,≤ 0.25
14,HAFR,≤ 0.25
15,GSGY,≤ 0.25
16,MHSL,0.261
17,QGPA,≤ 0.25
18,QEAT,3.8
19,EQGF,≤ 0.25
20,FNSP,≤ 0.25
21,QRWN,≤ 0.25
22,FAAL,≤ 0.25
23,DWNT,≤ 0.25
24,WGFY,≤ 0.25
25,RVMT,≤ 0.25

row,Variant,enrichment ratio
1,FWDF,≤ 0.25
2,QYWD,≤ 0.25
3,NQKV,≤ 0.25
4,DHNS,≤ 0.25
5,TFDE,≤ 0.25
6,EGQG,≤ 0.25
7,INWD,≤ 0.25
8,STFF,≤ 0.25
9,NKFL,≤ 0.25
10,HNSQ,≤ 0.25
11,YHGE,≤ 0.25
12,NKML,≤ 0.25
13,SKGG,≤ 0.25
14,QRPN,≤ 0.25
15,WKNM,≤ 0.25
16,LGIR,≤ 0.25
17,LHIC,≤ 0.25
18,NKDN,≤ 0.25
19,IDMM,≤ 0.25
20,PLVG,≤ 0.25
